Test results taken from ChEMBL document CHEMBL1201862, “PubChem BioAssay data set” (2004).
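In this assay, cells in 96-well plates receive the compound at five concentrations for 48 hours. Endpoints are linearly interpolated between the surrounding concentrations. GI50: concentration for 50% inhibition of growth.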 The source made the active and inactive calls. Cut-off read from the data, not from the text of the source: active = GI50 up to about 1.1 µM and inactive = higher.

What follows are compounds tested on NCI-H322M (assay: DTP human tumour cell line panel, 48 h).
In the case of `O=C(NN1C(=O)C(Cl)C1c1ccc(O)cc1)c1ccccc1O` (centres undefined), the GI50 is reported as inactive: 21.3 µM.
`COc1c2occc2c(N)c2ccc(=O)oc12` was tested, and the GI50 was inactive: > 100 µM.
In the case of `CC1(C)CC(=O)c2c(oc3cc(O)c(O)cc23)C1`, the GI50 is reported as inactive: 51.6 µM.
`CCOC(=O)c1c(O)nc(O)c(CC)c1C` was tested, and the GI50 was inactive: > 100 µM.
For `O=C(O)c1cccc(/[As]=[As]\c2cccc(C(=O)O)c2)c1` (centres undefined), the GI50 was inactive: > 100 µM.
In the case of `Cc1cc(NC2=CC(=O)C(=O)c3ccccc32)no1`, the GI50 is reported as inactive: 16.9 µM.
`O=C1c2cccc(NCCCNCCO)c2C(=O)c2cccc(NCCCNCCO)c21` was tested, and the GI50 was inactive: 1.49 µM.
In the case of `N#C/C(=C\Nc1ccccn1)C(=O)C1CC1`, the GI50 is reported as inactive: > 100 µM.
For `C=C(Cl)/C(=C\Cl)CCC(Br)C(C)C` (centres undefined), the GI50 was inactive: > 100 µM.
For `CCCCCC(=O)NC(=S)Nc1nnn[nH]1`, the GI50 was inactive: > 100 µM.
For `COc1ccc(C2OC2C(=O)C23CC4CC(CC(C4)C2)C3)cc1` (centres undefined), the GI50 was inactive: > 100 µM.
`CC1=NN(C(=O)c2ccc(Cl)cc2)C(=O)/C1=C/c1c(O)cc(O)c2ccccc12` was tested, and the GI50 was inactive: > 100 µM.
With `O=c1cc(CNC2CCCC2)[nH]c(=O)[nH]1` the GI50 was inactive: > 100 µM.
`CCCOP1(=O)C=C(O)C(Cl)=C(C)C1` (centres undefined) was tested, and the GI50 was inactive: > 100 µM.
In the case of `C=CC[N+]12CN3CN(CN(C3)C1)C2`, the GI50 is reported as inactive: 19.4 µM.
With `O=C(NNC(=S)Nc1ccc(Br)cc1)c1cc(-c2ccccc2)nc2ccccc12` the GI50 was inactive: 24.3 µM.
`CCOC(=O)c1c(-c2ccc(Br)cc2)ccn1C` was tested, and the GI50 was inactive: > 10 µM.
For `O=C1CSC2(CC(/C=C/c3cccs3)=NN2c2cccc(S(=O)(=O)O)c2)N1c1nc2ccccc2s1` (centres undefined), the GI50 was inactive: 92 µM.
In the case of `O=C(/C=C(\Nc1ccccc1O)c1ccccc1)C(=O)NC12CC3CC(CC(C3)C1)C2`, the GI50 is reported as inactive: > 10 µM.
`CCC(C(=O)O)c1ccc(OC)cc1` (centres undefined) was tested, and the GI50 was inactive: > 100 µM.
`CC(C)(C)N1C(=O)c2ccccc2C1(O)C(F)(F)F` (centres undefined) was tested, and the GI50 was inactive: > 100 µM.
In the case of `O=C1CC2(CCN(CC3COc4ccccc4O3)CC2)C(=O)N1N1CCCCCC1` (centres undefined), the GI50 is reported as inactive: > 100 µM.
For `CC/C=C/C[C@H](O)[C@H]1C[C@H]2O[C@H](CC(=O)OC)C[C@H]2O1`, the GI50 was inactive: > 100 µM.
For `C=CCOC(=O)C1=C(C)N=C2N[C@H](CCCCCCCCC)C[C@@H]3CCC1N23` (some centres undefined), the GI50 was inactive: 36 µM.
`CCOc1ccc(/C=C2/C(=O)N=C(N)N=C2N)cc1OCC` was tested, and the GI50 was inactive: > 100 µM.
With `CCOC(=O)c1s/c(=N\Nc2nc3ccccc3cc2C2OCCO2)n(Cc2ccccc2)c1C` the GI50 was inactive: > 100 µM.
With `Cc1ccc2c(c1)nc1n2C(c2c(F)cccc2F)SC1` (centres undefined) the GI50 was inactive: 53.8 µM.
With `O=C1O[C@]2(c3ccccc3)C(c3ccccc3)=C[C@]2(C(=O)c2ccccc2)C1=O` the GI50 was inactive: 47.2 µM.
In the case of `CC(C)COP(=O)(OCC(C)C)C(NS(=O)(=O)c1ccccc1)(C(F)(F)F)C(F)(F)F`, the GI50 is reported as inactive: 4.27 µM.
In the case of `C=CCCC1CCCNC1=S` (centres undefined), the GI50 is reported as inactive: > 100 µM.
In the case of `COCP1(=S)OC(C)CCN1C(C)C` (centres undefined), the GI50 is reported as inactive: > 100 µM.
With `COC1C=C(NCC2(CO)CCC2)N=C(N)N1` (centres undefined) the GI50 was inactive: > 100 µM.
For `Cc1cccc(C)c1NC(=O)CCC(=O)/N=C(\N)NC#N`, the GI50 was inactive: > 100 µM.
With `Cc1cn2c(C)csc2c1P(=O)(OC(C)C)OC(C)C` the GI50 was inactive: > 100 µM.
For `N=C(N)NCC(N)C(=O)O` (centres undefined), the GI50 was inactive: > 100 µM.
With `O=c1[nH]c(=O)n(C2CC(O)C(CO)O2)cc1OCc1ccccc1` (centres undefined) the GI50 was inactive: > 100 µM.
For `CCN(CC)CCNc1n[n+]([O-])c2cc([N+](=O)[O-])ccc2[n+]1[O-]`, the GI50 was inactive: 2.01 µM.
In the case of `CN(C)C(=O)O/N=C1/C(=C2/C(=O)Nc3ccccc32)Nc2ccccc21`, the GI50 is reported as inactive: 10.4 µM.
With `CCc1nc(N)c2nc(-c3ccc(C#N)cc3)oc2n1` the GI50 was inactive: > 100 µM.
For `CC1(C)C[C@H]2[C@H](O)C(CO)=C3C(=O)[C@@H](O)[C@]3(C)[C@H]2C1`, the GI50 was inactive: > 100 µM.
In the case of `Cc1nc2c(n1C(C)(C)C)C(=O)c1ccccc1C2=O`, the GI50 is reported as inactive: > 100 µM.
`COC(=O)C(Cc1ccc(N(C)C)cc1)(NC(=O)c1ccccc1)P(=O)(OC)OC` (centres undefined) was tested, and the GI50 was inactive: > 100 µM.
In the case of `Nc1ccc(S2(c3ccc(N)cc3)C=C(c3ccccc3)C(c3ccccc3)=C2)cc1`, the GI50 is reported as inactive: > 41.1 µM.
In the case of `COc1c2nc(CCl)[nH]c(=O)c2c(OC)c2nc(CCl)[nH]c(=O)c12`, the GI50 is reported as inactive: > 100 µM.
In the case of `Nc1ncc(C=O)c(NCC2(CO)CCC2)n1`, the GI50 is reported as inactive: > 100 µM.
With `C=C1CC2[C@H](C)C(=O)CCC2(C)C2=C1C1CCC(C(C)CCC(=C)C(C)C(=O)O)C1(C)CC2=O` (some centres undefined) the GI50 was inactive: > 100 µM.
With `Cn1c(=O)[nH]c2c(c1=O)C(=O)CN2` the GI50 was inactive: > 100 µM.
With `O=C(C[N+]12CN3CN(CN(C3)C1)C2)c1ccc(-c2ccccc2)cc1` the GI50 was inactive: 23.2 µM.
With `O=C1c2ccccc2C(=O)N1c1nc(-c2ccc(Cl)cc2)cc(N2N=C(c3ccc(Br)cc3)CC2c2ccccc2)n1` (centres undefined) the GI50 was inactive: 18.5 µM.
With `COC(=O)[C@@]1(C)C(=O)CC[C@@H]1C=O` the GI50 was inactive: > 100 µM.
For `CC(C)c1ccc(/C=C/c2cc(C(=O)NNC(=O)NC3CCCCC3)nc(S)n2)cc1`, the GI50 was inactive: > 100 µM.
In the case of `CN1CCCC2[C@@H]3CCC4=C(O)C(=O)CC[C@]4(C)C3CC[C@@]21C` (some centres undefined), the GI50 is reported as inactive: > 100 µM.
`COc1ccccc1N1C(=O)/C(=C/c2ccc(N(CCC#N)CCC#N)cc2C)N=C1c1cc([N+](=O)[O-])ccc1Cl` was tested, and the GI50 was inactive: > 100 µM.
For `CC(=O)c1c2c(cc3c1CCC3)CCC2`, the GI50 was inactive: > 100 µM.
In the case of `Cc1c(-c2coc(-c3ccc(Cl)cc3)n2)c(=O)n(-c2ccccc2)n1C`, the GI50 is reported as inactive: > 100 µM.
With `CCNc1cc2c3c(c1)CCCN3CCC2` the GI50 was inactive: 17.5 µM.
In the case of `CC1CCOc2ccc(cc2)/C=N\c2ccc(cc2)CCc2ccc(cc2)/N=C\c2ccc(cc2)OCC1`, the GI50 is reported as inactive: > 100 µM.
For `COc1ccc2c(c1)/C(=C/CCN(C)C)c1ccccc1S2`, the GI50 was inactive: > 100 µM.
In the case of `O=C(NC1C2CC3CC(C2)CC1C3)c1ccncn1` (centres undefined), the GI50 is reported as inactive: > 100 µM.
For `CCOP(=O)(/C=C/n1ccc(=O)[nH]c1=O)OCC`, the GI50 was inactive: > 100 µM.
With `CCOC(=O)N1C=CC(=C2C(=C3C=CN(C(=O)OCC)C=C3)C(=C3C=CN(C(=O)OCC)C=C3)C2=C2C=CN(C(=O)OCC)C=C2)C=C1` the GI50 was inactive: 17.5 µM.
`C=CC(C)(C)N[C@@H](C(=O)N1CCC[C@H]1c1nc(-c2nc(C(=O)OCC=C(C)C)c(C)o2)c(C)o1)C(C)C` was tested, and the GI50 was inactive: 24.4 µM.
With `CC(C)(C)c1nc2c(o1)C(=O)c1ccccc1C2=O` the GI50 was inactive: 3.18 µM.
In the case of `O=C(NNC(=S)NC1CCCCC1)c1csc(NC(=S)NC2CCCCC2)n1`, the GI50 is reported as inactive: 7.59 µM.
With `COc1ccc(N/N=C/C2=CC(C)(C)C(C#N)(C#N)C(O)=C2C#N)cc1` the GI50 was inactive: 43.4 µM.
`CC1=C(C)CC2(C=C(C(C)(C)C)C(=O)C(C(C)(C)C)=C2)SC1` was tested, and the GI50 was inactive: 22.5 µM.
In the case of `CC1OC(OC2C(O[C@H]3CC[C@@]4(C)[C@@H](CC[C@@H]5[C@@H]4CC[C@]4(C)[C@@H]6[C@H](C[C@@H]54)O[C@]4(CC[C@@H](C)CO4)[C@H]6C)C3)OC(CO)C(OC3OC(CO)C(O)C(OC4OCC(O)C(O)C4O)C3OC3OCC(O)C(O)C3O)C2O)C(O)C(O)C1O` (some centres undefined), the GI50 is reported as inactive: 1.29 µM.
In the case of `COc1cc(C2c3cc4c(cc3OC(NCCO)C2C)OCO4)cc(OC)c1OC` (centres undefined), the GI50 is reported as active: 0.225 µM.
In the case of `CC(C)(Oc1ccc2c(=O)cc(-c3ccccc3)oc2c1)C(=O)Nc1c(Cl)cccc1Cl`, the GI50 is reported as inactive: > 100 µM.
With `COc1ccc(C2C(C(=O)c3ccccc3)=C(O)C(O)(CC(=O)c3ccccc3)N2c2ccc(OC)cc2)cc1` (centres undefined) the GI50 was inactive: 29.6 µM.
In the case of `CC1(C)OC2C(O)CN3CCS[C@H]3C2O1` (some centres undefined), the GI50 is reported as inactive: > 100 µM.
In the case of `CC1C(=O)C(C)C(c2cccs2)N(N=O)C1c1cccs1` (centres undefined), the GI50 is reported as inactive: > 100 µM.
With `O=C(O)CCSCCCN1C(=O)c2ccccc2C1=O` the GI50 was inactive: > 100 µM.
For `C(#C[C@@]12CCC[C@@H]1NCO2)c1ccc2c(c1)OCO2`, the GI50 was inactive: 81.5 µM.
For `O=C1C=C(Nc2ccc(Cl)cc2Cl)c2ccccc2C1=O`, the GI50 was inactive: 29.6 µM.
In the case of `O=S1(=O)CS(=O)(=O)OCCO1`, the GI50 is reported as inactive: 78.3 µM.
`O=C(OCc1ccccc1)N1CCN(C(=O)OCc2ccccc2)CCN(C(=O)OCc2ccccc2)CCN(C(=O)OCc2ccccc2)CCN(C(=O)OCc2ccccc2)CC1` was tested, and the GI50 was inactive: > 100 µM.
`Clc1cccc(N/N=N/c2ccc(-c3nc4ccccc4s3)cc2)c1` was tested, and the GI50 was inactive: > 100 µM.
With `Cc1ccc(S(=O)(=O)OCC23CCC(C2)C2CC23)cc1` (centres undefined) the GI50 was inactive: > 100 µM.
For `CCC/N=C/c1cc(Cc2ccc(O)c(/C=N/CCC)c2)ccc1O`, the GI50 was inactive: 12.2 µM.
`CON(C)C(=O)CNC(=O)OCC1c2ccccc2-c2ccccc21` was tested, and the GI50 was inactive: > 100 µM.
With `C=C1CC(C)(COc2ccc3ccc(=O)oc3c2)OC1=O` (centres undefined) the GI50 was inactive: 13.3 µM.
In the case of `CC1(C)C2CCC1(C)C(NC(=O)COCCOCC(N)=O)C2` (centres undefined), the GI50 is reported as inactive: > 100 µM.
In the case of `COc1ccc(-c2nc(N)nc(-c3cc(C)ccc3O)c2Cl)cc1`, the GI50 is reported as inactive: > 100 µM.
With `CC1=CC(=O)/C(=C/N2CCNC2=S)C(=O)O1` the GI50 was inactive: > 100 µM.
For `Fc1c(F)c(C(F)(F)F)c(F)c(F)c1N/N=C\c1c[nH]c2ccccc12`, the GI50 was inactive: 5.7 µM.
`O=C(O)C1OC1C(=O)O` (centres undefined) was tested, and the GI50 was inactive: > 100 µM.
For `COC(=O)[C@@]12C3=NO[C@]1(C(=O)OC)C(O[Si](C)(C)C(C)(C)C)C1OC(C)(C)OC1[C@@H]2[C@@H](OCc1ccccc1)CC3` (some centres undefined), the GI50 was inactive: > 100 µM.
With `Nc1ccc(-c2nc3cc(F)ccc3s2)cc1Cl` the GI50 was inactive: 1.28 µM.
`Cc1ccn2c(CCc3nnc4cc(C)ccn34)nnc2c1` was tested, and the GI50 was inactive: > 100 µM.
`O=C(O)c1cc2ccccc2c(/N=N/c2ccc(S(=O)(=O)Nc3nccs3)cc2)c1O` was tested, and the GI50 was inactive: > 100 µM.
For `COc1ccc(Cl)cc1NC(=O)c1cccc([N+](=O)[O-])c1O`, the GI50 was inactive: 20.4 µM.
In the case of `CCOc1ccc2nc(-c3ccc(O)cc3)sc2c1`, the GI50 is reported as inactive: > 100 µM.
`CCCOc1ccc(/C=C/c2cc(OC)c(OC)c(OC)c2)cc1` was tested, and the GI50 was active: 0.483 µM.
